Data published in the supplement of paper PMC3724861.
The list shows a part of the results.

System: T1, Caupolican (Caup) homeodomain DNA-binding domain
T1 sequence: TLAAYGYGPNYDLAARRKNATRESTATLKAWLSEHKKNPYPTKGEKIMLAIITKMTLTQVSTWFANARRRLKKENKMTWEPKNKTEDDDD
Assay: PBM E-score (8-mer, recovered from the published 9-mer minima) (E-score (dimensionless, -0.5 to 0.5)); Drosophila protein; higher = stronger relative binding preference, active = 0.31 or more
Procedure, shortened: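 Caup's homeodomain DNA-binding domain (residues 214-303) was made by in vitro transcription and translation and applied at 100 nM to custom-designed protein binding microarrays. Each value is an enrichment score that gives relative binding preference for a short DNA word, with higher meaning stronger. The 8-mer values were recovered from published 9-mer scores, each of which was the minimum of its two constituent 8-mer scores. A cutoff of 0.31 marks candidate sites.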

| Sequence | PBM E-score |
| --- | --- |
| GGGTTAAA | inactive: 0.00529 |
| TAACCGCA | inactive: 0.0101 |
| AGGAATTA | ≥ 0.125 |
| CGATCAAA | inactive: -0.00998 |
| CCTCCCCG | inactive: -0.23 |
| AGAAGAGA | inactive: -0.078 |
| ATTTTTCA | inactive: 0.0919 |
| AAGAAGTC | inactive: -0.0128 |
| CATGCGCG | inactive: -0.0216 |
| ATCGATCC | inactive: 0.00323 |
| CTACGAGA | inactive: 0.00553 |
| ATGCTTGG | inactive: 0.0118 |
| AGATGCAT | inactive: 0.0765 |
| CAACTCAG | inactive: -0.105 |
| GGATATTA | inactive: 0.117 |
| ACCTTACG | inactive: -0.047 |
| CCGTGCGC | inactive: -0.175 |
| AGGAGACC | inactive: -0.207 |
| ATGGCGCG | inactive: -0.163 |
| GCAGCCCC | inactive: -0.268 |
| CGTGTGCC | inactive: -0.143 |
| ATGGCTAG | inactive: -0.0196 |
| ATAGCTTA | inactive: 0.0325 |
| AACGTCGG | inactive: -0.0685 |

| Sequence | PBM E-score |
| --- | --- |
| CATGATGC | inactive: 0.0535 |
| GGTAAGAA | inactive: 0.0246 |
| ATCCTCTA | inactive: -0.00764 |
| GCTAGCCC | inactive: -0.215 |
| TCGACAAA | inactive: 0.159 |
| ATTTTCAG | inactive: 0.105 |
| CTCCCCAC | inactive: -0.275 |
| ATTCGTAG | inactive: 0.0535 |
| CGAGGCTC | inactive: -0.207 |
| CACGCGGG | inactive: -0.105 |
| GTAAACCA | inactive: 0.119 |
| CTAGCGGA | inactive: -0.144 |
| AACCGAGA | inactive: -0.0191 |
| AGTAATGC | inactive: 0.0573 |
| AGGTACGC | inactive: -0.0652 |
| CCTTATCG | inactive: 0.0629 |
| GCTTCGCC | inactive: -0.257 |
| AGCCGAAT | inactive: -0.0412 |
| ACGTATTC | inactive: 0.0684 |
| AACGCTGG | inactive: -0.0926 |
| AAGATAGA | inactive: 0.0418 |
| CAGGTATA | inactive: 0.0792 |
| GGCCCCAA | inactive: -0.297 |
| CGCTAGGC | inactive: -0.251 |

| Sequence | PBM E-score |
| --- | --- |
| CATATCAA | inactive: 0.174 |
| TACGTACA | inactive: 0.286 |
| AAGTCAGG | inactive: -0.109 |
| ACCAGCTG | inactive: -0.0781 |
| ACTTGCGG | inactive: -0.0926 |
| ACTGCTGC | inactive: -0.0981 |
| GTCGGAGA | inactive: -0.0896 |
| CTTGACGC | inactive: -0.178 |
| TCCCCTAA | inactive: -0.0939 |
| TCGCAAGA | inactive: -0.0509 |
| GTGCAAAA | inactive: 0.0367 |
| GAACCACC | inactive: 0.0103 |
| AGTCAGCG | inactive: -0.144 |
| ATCCAGAG | inactive: 0.0191 |
| TCCAGGAA | inactive: -0.0556 |
| CCATAGGA | inactive: 0.00212 |
| AAATTCAG | inactive: 0.0174 |
| CTTTTGCA | inactive: -0.00815 |
| CACCCAAA | inactive: -0.042 |
| CTGCGTAA | inactive: -0.0276 |
| ACCAATAA | inactive: 0.0667 |
| CATTGCAC | inactive: 0.135 |
| CAATTCCC | inactive: 0.0386 |
| TGCGTCAA | inactive: -0.0751 |

| Sequence | PBM E-score |
| --- | --- |
| TCCGACGA | ≥ 0.0504 |
| GATTGTCA | inactive: 0.13 |
| ATAACCCA | inactive: -0.0198 |
| AGAGAGAG | inactive: -0.0528 |
| CCGTTGGA | inactive: -0.133 |
| AACCTAGC | inactive: -0.0443 |
| CGGAGGGC | inactive: -0.286 |
| CTTCAATC | inactive: -0.028 |
| ACATTAAT | inactive: 0.232 |
| ACCCTCGA | inactive: -0.0476 |
| AAAATGAC | inactive: 0.0699 |
| AAGCTGTA | ≥ 0.166 |
| ATTGAGCA | ≥ 0.103 |
| AGAACCCT | inactive: -0.163 |
| CTCCTAGA | inactive: -0.0555 |
| CAAATAGA | inactive: 0.127 |
| AGCTGTTA | inactive: 0.151 |
| GTACAAGA | active: 0.418 |
| CTATTGCA | inactive: 0.113 |
| ACCTGTGG | inactive: -0.146 |
| ACATGACT | active: 0.374 |
| CGCAGTCA | inactive: -0.0409 |
| ACCGTCGC | inactive: -0.151 |
| ACGCATAC | inactive: 0.0922 |

| Sequence | PBM E-score |
| --- | --- |
| CAGTTCCC | inactive: -0.168 |
| CAGTTGGG | inactive: -0.107 |
| ATAATCGA | inactive: 0.0683 |
| ACTTCCGC | inactive: -0.0678 |
| AGAGTGGG | inactive: -0.131 |
| CGCTGGAC | inactive: -0.13 |
| AGTTTCAC | inactive: 0.0192 |
| CACCAGTG | inactive: 0.0581 |
| CCATCGAA | inactive: -0.067 |
| CAGACTAG | inactive: 0.0926 |
| CTCAGGAG | inactive: -0.144 |
| ACGGCTGC | inactive: -0.0989 |
| CAAGTATA | inactive: 0.0844 |
| CATACGGG | inactive: -0.0993 |
| CACGGAGG | inactive: -0.0286 |
| ACTGCGCG | inactive: -0.148 |
| AAATACTG | inactive: 0.0706 |
| AGCCGTCG | inactive: -0.122 |
| AGGGAAGA | inactive: -0.0602 |
| ATAACGAT | inactive: 0.111 |
| AGGGAATC | inactive: 0.0178 |
| CATGTAGG | active: 0.356 |
| ATGGATAA | inactive: 0.124 |
| TTTAAAAA | inactive: 0.00517 |

| Sequence | PBM E-score |
| --- | --- |
| GACTATTA | inactive: 0.0719 |
| AGGAAAAC | inactive: 0.0105 |
| CTCACTGC | inactive: -0.0769 |
| ATGGCAGC | inactive: -0.0408 |
| GTGGACGA | inactive: -0.0222 |
| AAACAGCG | inactive: 0.102 |
| ACGTGATG | inactive: 0.111 |
| ACCACGAA | inactive: 0.0497 |
| CGTACCAA | inactive: 0.0356 |
| GGCTATTA | inactive: -0.0237 |
| CTAGTACA | active: 0.337 |
| AGGTGAGA | inactive: -0.0156 |
| AGCTTTCC | inactive: -0.213 |
| AGAGCCGA | inactive: -0.0838 |
| ATCCGAAC | inactive: 0.094 |
| CCGTTTTA | inactive: 0.0132 |
| CCAATTGG | inactive: -0.0667 |
| ACATAGTG | inactive: 0.261 |
| GCTGCTTA | inactive: -0.0334 |
| GACTAACC | inactive: -0.0023 |
| TAGATAAA | inactive: 0.131 |
